The values that follow come from the supplement of paper PMC9046079.

± gives the standard deviation of the averaged measurements. Some of the results follow.

The subject of assay [1] is murine small intestinal organoids (ENR+CD Paneth differentiation). The experiment in a line: cellular ATP (CellTiter-Glo 3D) relative to plate median (log10 fold change); higher = more viable cells. As to conditions: 6 d.
Assay [2] has the same test system. The assay is described as follows: carbachol-stimulated secreted lysozyme activity relative to plate median (log10 fold change); higher = more Paneth cell lysozyme secretion. As to conditions: 6 d, carbachol 10 µM.
Assay [3] has the same test system. The assay is described as follows: basal (non-stimulated) secreted lysozyme activity relative to plate median (log10 fold change); higher = more Paneth cell lysozyme secretion. As to conditions: 6 d.
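For basal (non-stimulated) secreted lysozyme activity relative to plate median in this document: ISC-enriched organoid precursors grown as 2.5D pseudo-monolayer on Matrigel, compound given on day 0 and day 3, plate values LOESS-normalized before median fold change, three murine donors.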
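For cellular ATP (CellTiter-Glo 3D) relative to plate median in this document: 2.5D pseudo-monolayer culture of ISC-enriched organoids partly embedded atop Matrigel, compound added on day 0 and again on day 3, per-plate LOESS correction before median fold change.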

On to `CC(C)N(CCCNC(=O)Nc1ccc(C(C)(C)C)cc1)C[C@H]1O[C@@H](n2cc(Br)c3c(N)ncnc32)[C@H](O)[C@@H]1O`, for which the “cellular ATP (log10)” value in assay [1] (0.08 µM) was -0.0196 ± 0.2; in assay [1] (0.4 µM) it was -0.167 ± 0.16; in assay [1] (2 µM), 0.0789 ± 0.17; in assay [1] (10 µM) it was -0.102 ± 0.28. In addition, the “carbachol-stimulated secreted lysozyme activity (log10)” value in assay [2] (0.08 µM) is 0.14 ± 0.16; in assay [2] (0.4 µM) it was -0.227 ± 0.25; in assay [2] (2 µM), 0.03 ± 0.064; in assay [2] (10 µM) it was 0.0255 ± 0.051. In addition, the “basal (log10)” value is 0.0882 ± 0.054 in assay [3] (0.08 µM), -0.0134 ± 0.13 in assay [3] (0.4 µM), 0.111 ± 0.13 in assay [3] (2 µM) and 0.0805 ± 0.023 in assay [3] (10 µM).
On to `CN(C)C(=O)Nc1cccc(-c2ccc(N(C)C)cc2)c1` [Atglistatin], for which the “cellular ATP (log10)” value in assay [1] (0.08 µM) is 0.0572 ± 0.026; in assay [1] (0.4 µM) it was 0.0039 ± 0.067; in assay [1] (2 µM) it was -0.0452 ± 0.33; in assay [1] (10 µM) it was -0.431 ± 0.46. Moreover, the “carbachol-stimulated secreted lysozyme activity (log10)” value was 0.0057 ± 0.059 in assay [2] (0.08 µM), -0.0442 ± 0.16 in assay [2] (0.4 µM), 0.0545 ± 0.027 in assay [2] (2 µM) and 0.0658 ± 0.48 in assay [2] (10 µM). Also, the “basal (log10)” value is 0.0694 ± 0.066 in assay [3] (0.08 µM), 0.135 ± 0.27 in assay [3] (0.4 µM), 0.0704 ± 0.072 in assay [3] (2 µM) and -0.0163 ± 0.14 in assay [3] (10 µM).
On to `COCCOc1ccc2c(c1)ncn2-c1ccc2cccc(N3CCC(N)CC3)c2n1`, for which the “cellular ATP (log10)” value in assay [1] (0.08 µM) was 0.0695 ± 0.15; in assay [1] (0.4 µM), 0.186 ± 0.21; in assay [1] (2 µM), 0.00768 ± 0.13; in assay [1] (10 µM) it was -0.258 ± 0.38. Besides, the “carbachol-stimulated secreted lysozyme activity (log10)” value in assay [2] (0.08 µM) was 0.162 ± 0.24; in assay [2] (0.4 µM), -0.0444 ± 0.0051; in assay [2] (2 µM) it was 0.113 ± 0.13; in assay [2] (10 µM) it was -0.155 ± 0.098. Further, the “basal (log10)” value in assay [3] (0.08 µM) was 0.0314 ± 0.04; in assay [3] (0.4 µM), 0.0663 ± 0.044; in assay [3] (2 µM), 0.102 ± 0.087; in assay [3] (10 µM), -0.0583 ± 0.075.
For the molecule `O=C(Nc1ccccc1-c1cn2c(CN3CCNCC3)csc2n1)c1cnc2ccccc2n1`, the “cellular ATP (log10)” value in assay [1] (0.08 µM) was -0.132 ± 1.3; in assay [1] (0.4 µM), 0.3 ± 0.28; in assay [1] (2 µM) it was 0.226 ± 0.23; in assay [1] (10 µM), -0.451 ± 0.46. Further, the “carbachol-stimulated secreted lysozyme activity (log10)” value was -0.0687 ± 0.28 in assay [2] (0.08 µM), 0.0374 ± 0.063 in assay [2] (0.4 µM), 0.124 ± 0.0036 in assay [2] (2 µM) and -0.163 ± 0.13 in assay [2] (10 µM). The “basal (log10)” value is 0.0668 ± 0.23 in assay [3] (0.08 µM), 0.0881 ± 0.14 in assay [3] (0.4 µM), 0.0529 ± 0.07 in assay [3] (2 µM) and -0.0308 ± 0.059 in assay [3] (10 µM).
`COc1ccc([C@]2(C#N)CC[C@@H](C(=O)O)CC2)cc1OC1CCCC1` [Cilomilast]: the “cellular ATP (log10)” value was -0.334 ± 0.094 in assay [1] (0.08 µM), -0.338 ± 0.31 in assay [1] (0.4 µM), -0.235 ± 0.078 in assay [1] (2 µM) and -0.192 ± 0.082 in assay [1] (10 µM). The “carbachol-stimulated secreted lysozyme activity (log10)” value is 0.139 ± 0.33 in assay [2] (0.08 µM), -0.15 ± 0.14 in assay [2] (0.4 µM), -0.0699 ± 0.099 in assay [2] (2 µM) and -0.0244 ± 0.065 in assay [2] (10 µM). Also, the “basal (log10)” value was 0.114 ± 0.27 in assay [3] (0.08 µM), -0.0369 ± 0.012 in assay [3] (0.4 µM), -0.00959 ± 0.11 in assay [3] (2 µM) and -0.0432 ± 0.084 in assay [3] (10 µM).
In the case of `CCCCc1nc(Cl)c(CO)n1Cc1ccc(-c2ccccc2-c2nnn[nH]2)cc1` [Losartan Potassium (DuP 753)], the “cellular ATP (log10)” value in assay [1] (0.08 µM) was -0.152 ± 0.29; in assay [1] (0.4 µM) it was -0.175 ± 0.41; in assay [1] (2 µM), -0.0806 ± 0.1; in assay [1] (10 µM), -0.137 ± 0.18. Further, the “carbachol-stimulated secreted lysozyme activity (log10)” value is 0.0238 ± 0.061 in assay [2] (0.08 µM), 0.0478 ± 0.019 in assay [2] (0.4 µM), -0.0728 ± 0.009 in assay [2] (2 µM) and -0.0202 ± 0.051 in assay [2] (10 µM). In addition, the “basal (log10)” value in assay [3] (0.08 µM) was 0.0515 ± 0.13; in assay [3] (0.4 µM), 0.0378 ± 0.086; in assay [3] (2 µM), -0.0416 ± 0.061; in assay [3] (10 µM), 0.062 ± 0.089.
For the molecule `CC(=O)O[C@]1(C(C)=O)CC[C@H]2[C@@H]3C=C(Cl)C4=CC(=O)[C@@H]5C[C@@H]5[C@]4(C)[C@H]3CC[C@@]21C` [Cyproterone Acetate], the “cellular ATP (log10)” value in assay [1] (0.08 µM) was -0.11 ± 0.3; in assay [1] (0.4 µM), 0.051 ± 0.13; in assay [1] (2 µM), -0.143 ± 0.38; in assay [1] (10 µM) it was -0.173 ± 0.25. Also, the “carbachol-stimulated secreted lysozyme activity (log10)” value in assay [2] (0.08 µM) was 0.0883 ± 0.19; in assay [2] (0.4 µM), -0.00844 ± 0.15; in assay [2] (2 µM), -0.147 ± 0.13; in assay [2] (10 µM), -0.175 ± 0.12. The “basal (log10)” value in assay [3] (0.08 µM) was -0.0258 ± 0.099; in assay [3] (0.4 µM), -0.0738 ± 0.028; in assay [3] (2 µM), -0.0551 ± 0.08; in assay [3] (10 µM) it was -0.0806 ± 0.044.
As to `COc1ccc2[nH]c([S@@+]([O-])Cc3ncc(C)c(OC)c3C)nc2c1` [Esomeprazole Sodium], the “cellular ATP (log10)” value in assay [1] (0.08 µM) was determined as 0.288 ± 0.17; in assay [1] (0.4 µM), 0.199 ± 0.21; in assay [1] (2 µM), 0.386 ± 0.19; in assay [1] (10 µM), 0.271 ± 0.17. The “carbachol-stimulated secreted lysozyme activity (log10)” value is 0.0676 ± 0.086 in assay [2] (0.08 µM), 0.122 ± 0.025 in assay [2] (0.4 µM), 0.0118 ± 0.037 in assay [2] (2 µM) and -0.0149 ± 0.075 in assay [2] (10 µM). For the same molecule, the “basal (log10)” value in assay [3] (0.08 µM) is 0.0858 ± 0.066; in assay [3] (0.4 µM), 0.233 ± 0.15; in assay [3] (2 µM), 0.0344 ± 0.061; in assay [3] (10 µM), -0.016 ± 0.08.
For the molecule `Cc1nc(C(=O)NCC(=O)O)c(O)c2ccc(Oc3ccccc3)cc12`, the “cellular ATP (log10)” value was 0.327 ± 0.25 in assay [1] (0.08 µM), 0.284 ± 0.17 in assay [1] (0.4 µM), 0.29 ± 0.029 in assay [1] (2 µM) and 0.238 ± 0.16 in assay [1] (10 µM). For the same molecule, the “carbachol-stimulated secreted lysozyme activity (log10)” value is 0.135 ± 0.14 in assay [2] (0.08 µM), 0.363 ± 0.2 in assay [2] (0.4 µM), 0.139 ± 0.034 in assay [2] (2 µM) and 0.0565 ± 0.044 in assay [2] (10 µM). The “basal (log10)” value in assay [3] (0.08 µM) stood at 0.0773 ± 0.14; in assay [3] (0.4 µM) it was 0.17 ± 0.19; in assay [3] (2 µM), 0.0944 ± 0.032; in assay [3] (10 µM), 0.0304 ± 0.03.
Turning to `CN1CCN(c2nc(C3=C(c4c[nH]c5ccccc45)C(=O)NC3=O)c3ccccc3n2)CC1` [Sotrastaurin], the “cellular ATP (log10)” value in assay [1] (0.08 µM) is 0.086 ± 0.1; in assay [1] (0.4 µM) it was -0.106 ± 0.16; in assay [1] (2 µM) it was -0.247 ± 0.28; in assay [1] (10 µM), -0.25 ± 0.4. The “carbachol-stimulated secreted lysozyme activity (log10)” value in assay [2] (0.08 µM) was 0.0254 ± 0.13; in assay [2] (0.4 µM) it was 0.0637 ± 0.19; in assay [2] (2 µM) it was 0.0022 ± 0.17; in assay [2] (10 µM) it was -0.0414 ± 0.3. In addition, the “basal (log10)” value in assay [3] (0.08 µM) is 0.0209 ± 0.091; in assay [3] (0.4 µM) it was -0.00646 ± 0.13; in assay [3] (2 µM), -0.0385 ± 0.092; in assay [3] (10 µM) it was -0.0793 ± 0.15.
`CC(C)c1ccc(NC(=O)Cn2cnc3c2c(=O)n(C)c(=O)n3C)cc1`: the “cellular ATP (log10)” value in assay [1] (0.08 µM) was 0.0818 ± 0.25; in assay [1] (0.4 µM) it was 0.191 ± 0.14; in assay [1] (2 µM), -0.00793 ± 0.14; in assay [1] (10 µM), -0.241 ± 0.17. For the same molecule, the “carbachol-stimulated secreted lysozyme activity (log10)” value in assay [2] (0.08 µM) is 0.11 ± 0.14; in assay [2] (0.4 µM), 0.153 ± 0.029; in assay [2] (2 µM), -0.0696 ± 0.1; in assay [2] (10 µM), 0.141 ± 0.17. The “basal (log10)” value in assay [3] (0.08 µM) was 0.0628 ± 0.063; in assay [3] (0.4 µM) it was 0.0334 ± 0.059; in assay [3] (2 µM), -0.0066 ± 0.078; in assay [3] (10 µM) it was -0.0472 ± 0.062.
With `CNCc1ccc(-c2cc(-c3nc(-c4ccc(S(=O)(=O)C(C)C)cc4)cnc3N)on2)cc1`, the “cellular ATP (log10)” value was -0.802 ± 1.1 in assay [1] (0.08 µM), -0.24 ± 0.62 in assay [1] (0.4 µM), -0.244 ± 0.48 in assay [1] (2 µM) and -1.08 ± 1.3 in assay [1] (10 µM). For the same molecule, the “carbachol-stimulated secreted lysozyme activity (log10)” value is -0.137 ± 0.39 in assay [2] (0.08 µM), -0.031 ± 0.26 in assay [2] (0.4 µM), -0.0805 ± 0.42 in assay [2] (2 µM) and -0.247 ± 0.33 in assay [2] (10 µM). Besides, the “basal (log10)” value was -0.0631 ± 0.19 in assay [3] (0.08 µM), -0.013 ± 0.1 in assay [3] (0.4 µM), -0.0604 ± 0.21 in assay [3] (2 µM) and -0.137 ± 0.15 in assay [3] (10 µM).
